Test results taken from PMC11589570, “Critical assessment of LC3/GABARAP ligands used for degrader development and ligandability of LC3/GABARAP binding pockets” (Nature Communications, 2024).

Experiments:
GABARAPL1 = GABARAPL1 (Homo sapiens, UniProt Q9H0R8); experiment: FP assay with Cy5-labelled p62 LIR tracer (protein titration and tracer displacement); assay type: binding; details: two replicate columns per compound
all LC3/GABARAPs = experiment: Covalent compound screening by ESI LC-MS; details: 50 µM protein, 100 µM compound, 90 min
LC3A = LC3A (Homo sapiens, UniProt Q9H492); experiment: FP assay with Cy5-labelled p62 LIR tracer (protein titration and tracer displacement); assay type: binding; details: two replicate columns per compound
GABARAP = GABARAP (Homo sapiens, UniProt O95166); experiment: as above; assay type: binding; details: two replicate columns per compound
GABARAP, sequence (O95166 1-116): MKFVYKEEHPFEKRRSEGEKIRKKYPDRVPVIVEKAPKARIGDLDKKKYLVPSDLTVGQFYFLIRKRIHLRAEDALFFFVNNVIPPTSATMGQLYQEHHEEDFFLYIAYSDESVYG

LC3C = LC3C (Homo sapiens, UniProt Q9BXW4); experiment: as above; assay type: binding; details: two replicate columns per compound
LC3C, sequence (Q9BXW4 1-126): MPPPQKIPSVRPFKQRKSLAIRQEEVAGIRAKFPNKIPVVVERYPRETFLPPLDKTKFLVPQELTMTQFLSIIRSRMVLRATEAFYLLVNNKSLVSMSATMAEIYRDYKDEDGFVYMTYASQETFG

LC3/GABARAP = experiment: Chemoproteomic competition pulldown assay (affinity matrix, LC-MS/MS) in HEK293T lysate; assay type: binding; details: HEK293T cell lysate
Method: Preparation of Affinity Matrix 10O5 and 8F20: Compounds 18 and 19 (1 µM) were linked to DMSO-washed NHS-activated ( ~ […] beads) sepharose beads (1 mL) and triethylamine (20 µL) in DMSO (2 mL) on an end-over-end shaker overnight at RT in the dark. Aminoethanol (50 µL) was then added to inactivate the remaining NHS-activated carboxylic acid groups. […] Successful immobilization was controlled by LC-MS and Kaiser-test[46].
Preparation of cell lysates for affinity pulldown assays: HEK293 cells (ATCC; CRL-11268) were cultured in DMEM (PAN Biotech). All media were supplemented with 10% FBS (PAN Biotech) and cells were internally tested for Mycoplasma contamination. […] The protein amount of cell lysates was determined by Bradford assay and adjusted to a concentration of 5 mg/mL[46]. […]
LC-MSMS measurement of (competition) pulldown assays: Peptides were analyzed via LC-MS/MS on a Dionex Ultimate3000 nano HPLC coupled to an Orbitrap Fusion Lumos mass spectrometer, operated via the Thermo Scientific Xcalibur software. […]
The mass spectrometer was operated in data dependent mode, automatically switching between MS1 and MS2 spectra. […] Up to 12 peptide precursors were isolated (isolation width of 1.2 Th, maximum injection time of 75 ms, AGC value of 2e5), fragmented by HCD using 25 % […] normalized collision energy (NCE) and analyzed in the Orbitrap at a resolution of 15,000. […]

LC3/GABARAPs = experiment: Temperature shift assay (TSA/DSF); assay type: binding, human; details: DSF screening
Method: Temperature shift assay (TSA): Purified proteins were buffered in TSA buffer (25 mM HEPES pH 7.5, 500 mM NaCl) and were assayed in a 384-well plate (Thermo, #BC3384) with a final protein concentration of 20 μM in 10 μL final assay volume. Inhibitors were added in excess to a final concentration of 40 μM, using an ECHO 550 acoustic dispenser (Labcyte). As a fluorescent probe, SYPRO-Orange (Molecular Probes) was used at 5x final concentration. Filters for excitation and emission were set to 465 nm and 590 nm, respectively. The temperature was increased from 25 °C with 3 °C/min to a final temperature of 99 °C, while scanning, using the QuantStudio5 (Applied Biosystems). Data was analyzed using Boltzmann-equation in the Protein Thermal Shift software (Applied Biosystems). Samples were measured in technical triplicates.

[1] = log10 concentration [M] -3.82391
[2] = log10 concentration [M] -4.1549
[3] = log10 concentration [M] -4.60206
[4] = log10 concentration [M] -5.30103
[5] = log10 concentration [M] -5.69897
[6] = log10 concentration [M] -6.22185
[7] = log10 concentration [M] -6.69897
[8] = log10 concentration [M] -7.30103
[9] = log10 concentration [M] -7.79588
[10] = log10 concentration [M] -8.08092

GABARAPL1, sequence (Q9H0R8 whole entry): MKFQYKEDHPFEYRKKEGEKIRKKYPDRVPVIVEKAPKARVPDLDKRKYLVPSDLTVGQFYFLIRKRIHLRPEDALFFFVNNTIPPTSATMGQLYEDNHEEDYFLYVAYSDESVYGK

compound titration GABARAPL1 (displacement curve, FP signal) (GABARAPL1; [1]): 88.2857 and 89.4286
compound titration GABARAPL1 (displacement curve, FP signal) (GABARAPL1; [2]): 92.7143 and 96.4286
compound titration GABARAPL1 (displacement curve, FP signal) (GABARAPL1; [3]): 99.5714 and 100.571
compound titration GABARAPL1 (displacement curve, FP signal) (GABARAPL1; log10 concentration [M] -5): 97.5714 and 100.286
compound titration LC3A (displacement curve, FP signal) (LC3A; [1]): 92.1053 and 96.0526
compound titration LC3A (displacement curve, FP signal) (LC3A; [2]): 100.526 and 101.053
compound titration LC3A (displacement curve, FP signal) (LC3A; [3]): 103.684 and 106.579
compound titration LC3A (displacement curve, FP signal) (LC3A; log10 concentration [M] -5): 107.368 and 103.684
compound titration LC3A (displacement curve, FP signal) (LC3A; [4]): 103.421 and 105
compound titration LC3A (displacement curve, FP signal) (LC3A; [5]): 102.105 and 100
compound titration LC3A (displacement curve, FP signal) (LC3A; [6]): 101.842 and 98.6842
compound titration LC3A (displacement curve, FP signal) (LC3A; [7]): 102.632 and 100.789
compound titration LC3A (displacement curve, FP signal) (LC3A; [8]): 107.368 and 100.526
compound titration LC3A (displacement curve, FP signal) (LC3A; [9]): 97.6316 and 93.4211
compound titration LC3A (displacement curve, FP signal) (LC3A; [10]): 105.526 and 95.7895
compound titration GABARAP (displacement curve, FP signal) (GABARAP; [1]): 86.8966 and 88.6207
compound titration GABARAP (displacement curve, FP signal) (GABARAP; [2]): 89.3103 and 93.4483
compound titration GABARAP (displacement curve, FP signal) (GABARAP; [3]): 97.2414 and 98.6207
compound titration GABARAP (displacement curve, FP signal) (GABARAP; log10 concentration [M] -5): 96.3793 and 100.517
compound titration GABARAP (displacement curve, FP signal) (GABARAP; [4]): 98.6207 and 102.759
compound titration GABARAP (displacement curve, FP signal) (GABARAP; [5]): 91.5517 and 93.2759
compound titration GABARAP (displacement curve, FP signal) (GABARAP; [6]): 93.6207 and 99.4828
compound titration GABARAP (displacement curve, FP signal) (GABARAP; [7]): 97.069 and 100.517
compound titration GABARAP (displacement curve, FP signal) (GABARAP; [8]): 99.8276 and 99.4828
compound titration GABARAP (displacement curve, FP signal) (GABARAP; [9]): 94.8276 and 99.4828
compound titration GABARAP (displacement curve, FP signal) (GABARAP; [10]): 98.1034 and 100.172
compound titration LC3C (displacement curve, FP signal) (LC3C; [1]): 88.4 and 94.8
compound titration LC3C (displacement curve, FP signal) (LC3C; [2]): 93.8
compound titration LC3C (displacement curve, FP signal) (LC3C; [3]): 97.2 and 97.8
compound titration LC3C (displacement curve, FP signal) (LC3C; log10 concentration [M] -5): 97 and 99.8
compound titration LC3C (displacement curve, FP signal) (LC3C; [4]): 96.8 and 97.6
compound titration LC3C (displacement curve, FP signal) (LC3C; [5]): 92.2 and 91.4
compound titration LC3C (displacement curve, FP signal) (LC3C; [6]): 97.6 and 94.6
compound titration LC3C (displacement curve, FP signal) (LC3C; [7]): 97.4 and 96.8
compound titration LC3C (displacement curve, FP signal) (LC3C; [8]): 96.2 and 101.4
compound titration LC3C (displacement curve, FP signal) (LC3C; [9]): 95.4 and 95.2
compound titration LC3C (displacement curve, FP signal) (LC3C; [10]): 93.8 and 99
SMILES: O=C1CC(c2ccc(Cl)c(Cl)c2)CC(=O)C1=CNCCN1CCNCC1 (stereo not shown) [compound 7]
covalent labelling (mass shift, ESI MS) (all LC3/GABARAPs): successfully modified

SMILES: NCCCOCCOCCOCCCNC(=O)COc1c(Br)cc(C=C2C(=O)Nc3ccc(I)cc32)cc1Br [compound 18, N-(3-(2-(2-(3-aminopropoxy)ethoxy)ethoxy)propyl)−2-(2,6-dibromo-4-((5-iodo-2-oxoindolin-3-ylidene)methyl)phenoxy)acetamide]
enrichment / pulldown of LC3/GABARAP by affinity matrix (LC3/GABARAP): did not enrich

SMILES: CC(C)C[C@H](NC(=O)[C@H](Cc1c[nH]cn1)NC(=O)[C@@H](NC(=O)[C@H](Cc1c[nH]c2ccccc12)NC(=O)[C@H](CC(=O)O)NC(=O)[C@H](CC(=O)O)NC(=O)[C@H](CC(=O)O)NC(=O)CNC(=O)CNC(=O)[C@H](CO)NC(=O)[C@H](CO)NC(=O)[C@H](CC(N)=O)NC(=O)[C@H](CC(=O)O)NC(=O)[C@@H](N)CO)[C@@H](C)O)C(=O)N[C@@H](CO)C(=O)N[C@@H](CO)C(=O)N[C@@H](CCCCN)C(=O)O [p62-LIR]
ΔTmB, °C difference to the DMSO control (LC3/GABARAPs): up to 4 °C

“And” between values parts separate entries of the source, which are not always exact repeats. Identical values can stand only once. One block for each compound: values may come before it.
